# Data: PubChem BioAssay AID493208 (National Center for Advancing Translational Sciences (NCATS), 2011)
# The whole screen tested about 44,000 compounds, of which about 340 (0.77%) were called active. Inconclusive results (about 5%) are left out. The call rests on the fitted dose curve; in most records, active means well fitted inhibition curve with a large enough effect; inconclusive means small, poorly fitted or top-dose-only effect; inactive means flat fitted curve, though single readings scatter. Some of the results follow.
# Assay: Acumen qHTS Assay for Inhibitors of the mTORC1 Signaling Pathway in MEF (Tsc2-/-, p53-/-) Cells: Sytravon; further: nearly all actives have a fitted effect of over 50% in size;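 on activity change, negative = inhibition: plate controls were DMSO for no effect and rapamycin for full effect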
# Conditions: phospho-rpS6 immunofluorescence/PI, 24 h; series mostly up to 38.3 µM; activity change, negative = inhibition: at the top concentration
# How it was run: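 Read-out: phospho-S6 Alexa-488 intensity over PI intensity per well, scored as % active cells using thresholds from rapamycin (7.5 nM) and DMSO controls. Tsc2-/-, p53-/- MEFs exposed to compound for 24 h; PI cell count recorded as viability.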
# Potency means the concentration at half of the fitted maximal effect.
Structure (SMILES),"activity change, negative = inhibition",Potency
CCCCc1nn2c(=O)cc(COC(=O)c3ccco3)nc2s1,inactive: 19.3%,
CCCCNc1ccc(-c2nc(-c3ccncc3)no2)cc1[N+](=O)[O-],inactive: 0%,
CCC(C(=O)Nc1ccccc1)n1nc(-c2cc(C)ccc2C)ccc1=O (stereo not given),inactive: -8.3%,
Cc1cccc(NC(=O)C2CCCN(S(=O)(=O)c3c(C)n[nH]c3C)C2)c1 (stereo not given),inactive: -7.31%,
CCN1C(=O)N(c2ccc(C(C)=O)cc2)S(=O)(=O)c2ccccc21,inactive: -1.6%,
CSc1ccc(CCNC(=O)Cn2ncn3c(cc4ccccc43)c2=O)cc1,inactive: 0.1%,
CCOc1ccc(-n2c(=O)c3c(C)c(C)sc3n(CC(=O)Nc3ccc(CC)cc3)c2=O)cc1,inactive: 2.1%,
Cc1ccccc1Nc1c(-c2cccnc2)nc2cccc(C)n12,inactive: 5.27%,
Cn1nc(-c2ccc(OCC(=O)Nc3ccc(Cl)cc3)cc2)c2ccccc2c1=O,inactive: -10.5%,
CCN(C(=O)c1cc2c(=O)n(CC)c3ccccc3c2s1)c1cccc(C(F)(F)F)c1,inactive: -9.4%,
COc1ccc(Br)cc1CNC(=O)c1cnc2sc(N3CCCCCC3)nn2c1=O,inactive: 10.9%,
CCOC(=O)c1sc(NC(=O)c2nc3nc(C)cc(C(F)F)n3n2)c(C(=O)OC(C)C)c1C,inactive: -0.0648%,
COc1ccccc1C(=O)Nc1ccccc1C(=O)OCc1cc(=O)n2ccsc2n1,inactive: 10.7%,
CCCOc1ccc(CNC(=O)CCCN2C(=O)CSc3c2c(C)nn3-c2ccccc2)cc1,inactive: -9.27%,
COc1ccc(C2(N3CCN(c4cc(C)ccc4C)CC3)C(=O)c3ccccc3C2=O)cc1,inactive: 2.04%,
CCOc1ccccc1NC(=O)CSc1nc2cc(OC)c(OC)cc2c2nc(CCn3c(C)nc4ccccc43)nn12,inactive: 1.67%,
CCCN(CCC)C(=O)Cn1c(SCc2cccc(F)c2)nc2cccnc21,inactive: 0.34%,
N#Cc1cccc(NC(=O)C2CCN(S(=O)(=O)c3ccc4c(c3)CCCN4C(=O)C3CCC3)CC2)c1,inactive: -5.42%,
Cc1nc(-c2ccc(F)cc2)sc1CCNC(=O)c1ccccc1C(F)(F)F,inactive: -13.5%,
Cc1ccc2oc(C(=O)NCC(c3ccc(Cl)cc3)N3CCOCC3)c(C)c2c1 (stereo not given),inactive: -0.164%,

Structure (SMILES),"activity change, negative = inhibition",Potency
Cc1ccc(CNC(=O)c2cc3c(=O)n4cccc(C)c4nc3s2)cc1,inactive: -19%,
COc1ccccc1NC(=O)CN1C(=O)C(C)(C)c2ccccc21,inactive: 0.596%,
Cc1ccc(CNC(=O)CN2C(=O)C3CCCCN3c3ccc(C(=O)N(C)C)cc32)cc1 (stereo not given),inactive: -1.77%,
CC1=C(C(=O)Nc2ccccc2C)C(c2sccc2C)n2ncnc2N1 (stereo not given),inactive: -4.01%,
Cc1ccc(S(N)(=O)=O)cc1NC(=O)c1c(-c2c(Cl)cccc2Cl)noc1C,inactive: -1.58%,
CCN(CC)CCNC(=O)CN1C(=O)CSc2ccc(S(=O)(=O)N3CCOCC3)cc21,inactive: 2.72%,
Cc1ccccc1CSc1nc2c([nH]c3ccccc32)c(=O)n1-c1ccccc1,inactive: -2.33%,
CCc1nnc2c(NCc3ccccc3)nc3ccccc3n12,inactive: 1.21%,
Cc1ccc(C(=O)N2CCN(c3ccccc3)CC2)cc1NC(=O)c1nsc2ccccc12,inactive: -2.62%,
N#Cc1c(C(F)(F)F)cc(-c2cccs2)nc1SCC(=O)Nc1cccc(Br)c1,,active: 11.7 µM
O=C(NCCCN1CCN(c2ccccc2F)CC1)c1ccc2nc(Cc3ccccc3)oc2c1,inactive: -2.22%,
CC(C)c1ccc(NC(=O)C2CCCN(S(=O)(=O)c3ccc4[nH]c(=O)oc4c3)C2)cc1 (stereo not given),inactive: -8.14%,
Cc1ccc(CNC(=O)CN2N=C(c3ccc(C)cc3)CCC2=O)cc1,inactive: -13.3%,
CCCN(CCC)CCCNC(=O)Cn1ncn2c(cc3sc(CC)cc32)c1=O,inactive: -0.145%,
CCN(CC)S(=O)(=O)c1ccc2c(c1)c(=O)c(C(=O)N1CCN(c3ccc(OC)cc3)CC1)cn2C,inactive: 1.66%,
CCc1ccccc1NC(=O)c1nc2nc(C)cc(C(F)F)n2n1,inactive: 0.805%,
Cc1cccc(-c2nnc(SCC(=O)Nc3ccc(C)c(C)c3)o2)c1,inactive: -10%,
CCCS(=O)(=O)c1c(S(=O)(=O)CCC)c2cc(C(C)(C)C)ccn2c1C(=O)c1ccc(C)cc1,inactive: 0.198%,
COc1cccc(CN2C(=O)c3ccccc3C2C(=O)NCCc2ccccc2)c1 (stereo not given),inactive: 1.65%,
CCC(C)NC(=O)c1ccc(Cn2c(=O)c3cccn3c3cccnc32)cc1 (stereo not given),inactive: 1.35%,

Structure (SMILES),"activity change, negative = inhibition",Potency
COc1ccc(Nc2nnc(-c3cc4cc(Cl)ccc4oc3=O)s2)cc1,inactive: -0.032%,
COc1cc(SC)ccc1C(=O)N1CCn2c3c(c4cc(C)ccc42)CCCC31 (stereo not given),inactive: -3.79%,
COc1ccccc1CNC(=O)CSc1nc2nc(C)c(Cc3ccccc3C)c(C)n2n1,inactive: 0%,
O=C(NCc1ccc(Cl)cc1)C1CCN(C(=O)c2cnn(-c3ccccc3)c2-n2cccc2)CC1,inactive: 3.85%,
Cc1ccc(C)c(N2CCN(C(=O)CCc3c(C)nn(-c4ccc(N5CCCC5)nn4)c3C)CC2)c1,inactive: 0.463%,
Cc1ccc(C(=O)Nc2c(C)nc3ccccn3c2=O)cc1,inactive: -15.6%,
O=C(CCCCCn1c(=O)[nH]c2ccsc2c1=O)NCc1ccccc1,inactive: 0%,
Oc1c(C(c2cccc(Br)c2)N2CCCC2)sc2nc(-c3ccco3)nn12 (stereo not given),inactive: -3.84%,
CCOc1ccc(CNC(=O)Cn2nc(N3CCN(c4ccccc4)CC3)ccc2=O)cc1,inactive: -5.76%,
COc1cccc(C(=O)Nc2nc3nc(C)c(Cc4ccccc4)c(=O)n3[nH]2)c1,inactive: -0.138%,
Cc1cccc(N2C(=O)C(CC(=O)Nc3ccccc3)N(C3CCCCC3)C2=O)c1 (stereo not given),inactive: -11.9%,
CCOC(=O)c1c(C)[nH]c(C)c1S(=O)(=O)N(C)CC(=O)N1CCN(c2cccc(C)c2C)CC1,inactive: -7.61%,
COc1ccccc1C(=O)Nc1ccccc1C(=O)OCc1cc(=O)n2c(C)csc2n1,inactive: 5.96%,
COC(=O)c1ccc(NC(=O)CC2C(=O)N(c3cccc(C)c3)C(=O)N2Cc2ccco2)cc1 (stereo not given),inactive: -1.66%,
CCOC(=O)c1c(C)oc2nc(C)nc(NCCCN3CCN(c4ccccc4OC)CC3)c12,inactive: -4.06%,
Cc1nn(C)c2c1c(-c1ccccc1)cc(=O)n2Cc1ccc(Br)cc1F,inactive: -11.8%,
O=C(c1cccc([N+](=O)[O-])c1)N1c2nc(-c3ccco3)nn2C2(CCCCC2)[C@@H]2CCCC[C@@H]21,inactive: -0.899%,
COc1ccc(-c2cc(C(F)(F)F)nc(SCC(=O)N3CCCCC3)n2)cc1,inactive: 4.47%,
CCCCOc1ccc(NC(=O)c2cc3c(n(-c4ccc(Cl)cc4)c2=O)CCCC3=O)cc1,inactive: -13.7%,
Cc1ccc(CNC(=O)CCCn2c(=O)c3ccccc3n(Cc3ccccc3Cl)c2=O)cc1,inactive: 5.33%,
